Test results as given in the RNAGym collection of RNA variant scans (doi:10.7554/elife.90254).
Read counts are not given, so values of variants with three or more changes are uncertain.

B1: LINE1-mini (parent)
chain: GGCAGAGCUCAACACAGCGUGGCAAAGUGGCUGUGGCUAGACUGCC

Variants of: B1
Test: self-cleavage, relative activity (ratio to wild type); higher = more cleavage; in vitro, sequencing; the parent is a self-cleaving ribozyme
In the case of A6U U20G U28A, the self-cleavage is reported as 0.28.
Variant G1U C3U C13A has a self-cleavage of 0.2.
For G5C G22A G44C, the self-cleavage was 0.06.
For A24U C37A U38C, the self-cleavage was 0.96.
A4U G17C C18U G33U showed a self-cleavage of 0.06.
G1U U20C G29U showed a self-cleavage of 0.05.
Variant C8U A11U A14U C15A G36A has a self-cleavage of 0.03.
C8A C23U A26U G33A G40U showed a self-cleavage of 0.17.
C15U G36A A41U C42A showed a self-cleavage of 0.26.
G5C C10A G17A gave a self-cleavage of 0.01.
Work on U20C G29U C31U yielded a self-cleavage of 0.94.
With G1U A4G A14U G30A A39C the self-cleavage was 0.05.
Work on G7C U9A C37U yielded a self-cleavage of 0.02.
Variant C15U G29A G35U G36U has a self-cleavage of 0.12.
For C3A G17U A25G C31G, the self-cleavage was 0.13.
For A12G U34C C42A, the self-cleavage was 0.02.
C10G A11U C13G C18A U20C G22U gave a self-cleavage of 0.02.
Work on G1A A4G G22C yielded a self-cleavage of 0.1.
Variant G5C C15A G22U G30U A41C has a self-cleavage of 0.05.
With C8G G27A C42U C45U the self-cleavage was 0.04.
Variant A11C C13A C37A has a self-cleavage of 0.
G7U C8A A14U G27C showed a self-cleavage of 0.14.
A12G A24G C46A gave a self-cleavage of 0.02.
Work on A6G A12G G27U G35U C42A U43A yielded a self-cleavage of 0.01.
C8G C15U A26G U38G showed a self-cleavage of 0.09.
In the case of C3A A6G C23A A39G C45A, the self-cleavage is reported as 0.01.
Work on G7A C10U A24C C31U yielded a self-cleavage of 0.06.
Variant A26U C31U C45U has a self-cleavage of 0.09.
With C13U G27A C42U C45G the self-cleavage was 0.04.
With A4G G19A G33A G35A G44U the self-cleavage was 0.02.
C3A G22A G29A showed a self-cleavage of 0.57.
For G27C C31G U32A U34G, the self-cleavage was 0.02.
A6U C10G U20A gave a self-cleavage of 0.05.
Variant U20C G27C G33A A41U has a self-cleavage of 0.03.
Variant C37U A39G C46A has a self-cleavage of 0.01.
For C15G G30A U34A, the self-cleavage was 0.01.
G5C C18A C37U G44U gave a self-cleavage of 0.01.
G2U G27A U38A gave a self-cleavage of 0.04.
G7U G19A C31A gave a self-cleavage of 0.04.
With A6C A16G A26G C37U C45A the self-cleavage was 0.02.
With C15A U20A G30C G36C A41C the self-cleavage was 0.07.
In the case of G5U C8A G30A C37A, the self-cleavage is reported as 0.24.
For G7U A16U A25U, the self-cleavage was 0.11.
With C10G C23U A25G G27C G30U U43A the self-cleavage was 0.02.
Variant G2A A11G A12G A16U C46U has a self-cleavage of 0.01.
With G5U C15G A16C C18A A26G G30U C37G the self-cleavage was 0.01.
C3U A11U C15G C23A A26C showed a self-cleavage of 0.01.
With A16C G19C G27U the self-cleavage was 0.6.
Variant U9G C10U C37U A41G has a self-cleavage of 0.01.
With G2C U38A G40C the self-cleavage was 0.02.
A11C U20G G35U A39U A41U showed a self-cleavage of 0.
With G2A C23U G27U C31G G35C the self-cleavage was 0.17.
C10A G30U C46A gave a self-cleavage of 0.03.
Variant A6U A14G G19U C23U has a self-cleavage of 0.36.
With G2A C3A G7U G19U G21C G27U U34A the self-cleavage was 0.39.
Variant G1U G17A G33U has a self-cleavage of 0.
Variant C3U G17C G44C C45A C46G has a self-cleavage of 0.05.
With A4U C42G G44A the self-cleavage was 0.03.
C23U G33A C42U gave a self-cleavage of 0.01.
For A6C C8G U9A A14G G44U, the self-cleavage was 0.03.
Work on C18A A24U U34A G35A G36A yielded a self-cleavage of 0.17.
C3A A11U G33U G44A showed a self-cleavage of 0.08.
In the case of G1C A24G U34C A39G, the self-cleavage is reported as 0.
Variant C10U C31G G36A C46A has a self-cleavage of 0.05.
For U28A A41C C42U, the self-cleavage was 0.02.
In the case of C10A A14C A25U, the self-cleavage is reported as 0.01.
C18G G35C A41U gave a self-cleavage of 0.03.
Work on G1U C8U C13G C42A yielded a self-cleavage of 0.02.
With C18U C23G C31A G36A the self-cleavage was 0.04.
Work on G2A C18U G33U yielded a self-cleavage of 0.1.
Work on C8G A12C G19U G21A G36A U38C A41U yielded a self-cleavage of 0.01.
Work on G1U C10A A26C yielded a self-cleavage of 0.01.
With C13G G27U C46A the self-cleavage was 0.05.
With C15G G27C U28A the self-cleavage was 0.06.
In the case of A4G G17A G22C C23A U28C G30U, the self-cleavage is reported as 0.1.
G5U U9G U38C showed a self-cleavage of 0.12.
C23A G35A G40A C42G C46U showed a self-cleavage of 0.01.
In the case of A6C C10U C23A, the self-cleavage is reported as 0.13.
In the case of C18G G19A G21A, the self-cleavage is reported as 0.57.
Work on A11U A16G G17C C18A G27C C45G C46G yielded a self-cleavage of 0.01.
G7A C37U C46A gave a self-cleavage of 0.
Variant A4U A6C G30U G40U U43A has a self-cleavage of 0.01.
In the case of C18U C31A U32C, the self-cleavage is reported as 0.05.
For A16G C31U U34A, the self-cleavage was 0.01.
For G7U G27A U32A G40A, the self-cleavage was 0.02.
C15A G21U C23U gave a self-cleavage of 0.09.
In the case of C8G C31G U34G, the self-cleavage is reported as 0.11.
In the case of A6G A14G A26U, the self-cleavage is reported as 0.08.
G21U A25G G35U U38G gave a self-cleavage of 0.01.
C3G G7A G22U A24C G29U gave a self-cleavage of 0.18.
U9C G33U G36A showed a self-cleavage of 0.05.
Variant G1A A6C G33C has a self-cleavage of 0.06.
U20G A41C U43G gave a self-cleavage of 0.02.
In the case of G5U U34G G40U, the self-cleavage is reported as 0.
In the case of G19A C31U U34C A41U, the self-cleavage is reported as 0.03.
Variant G7U A25C G27C G44A has a self-cleavage of 0.11.
For C3G C15A G19C U32A, the self-cleavage was 0.04.
Work on C8G C10A C15A C31G U38C U43G yielded a self-cleavage of 0.
G1U C8U A25C C37G U38G showed a self-cleavage of 0.
G7C G29A C37G G40U gave a self-cleavage of 0.08.
In the case of A4C G5A A12U, the self-cleavage is reported as 0.14.
For C15G U38C G40U, the self-cleavage was 0.01.
With C10A C23G A25U the self-cleavage was 0.12.
Work on A4C G7A A25U G35A C37A C45A yielded a self-cleavage of 0.14.
In the case of C10A C18A U38A, the self-cleavage is reported as 0.06.
Variant U9G A26U U28G G35A has a self-cleavage of 0.04.
For U20A C23U G30A G40U, the self-cleavage was 0.11.
G2C A11U A12U C18G C31G U34C G35U gave a self-cleavage of 0.02.
G5U G29C C31U A41C gave a self-cleavage of 0.03.
Work on C8U U34C A39C yielded a self-cleavage of 0.03.
Work on C10A G21U U34C G40C G44C yielded a self-cleavage of 0.02.
Variant C10U C13G U20G has a self-cleavage of 0.05.
C10G C15G A16U U34C gave a self-cleavage of 0.01.
In the case of G5U A26U G35U C42G, the self-cleavage is reported as 0.03.
Work on G7A C31A G35C G40A yielded a self-cleavage of 0.11.
Variant G7C G27A G29A C31U has a self-cleavage of 0.14.
Variant A6U A24G A25G has a self-cleavage of 0.19.
For C8U C13G G17A U20A, the self-cleavage was 0.06.
C3A C13A A39G gave a self-cleavage of 1.38.
In the case of A25G C31G U43A, the self-cleavage is reported as 0.
Work on A4U A12C A14G U28G yielded a self-cleavage of 0.
For C3U G17A C31A G35C G44A, the self-cleavage was 0.02.
For A25C U28A U34G G36U G44U, the self-cleavage was 0.04.
C3U G21A A25U A26C G40A C45A showed a self-cleavage of 0.74.
A4U C37A G40U G44A gave a self-cleavage of 1.48.
For C3A A4G G7U C42A, the self-cleavage was 0.16.
Work on G1U C3G C15U G22U G30U G35C yielded a self-cleavage of 0.2.
With C3A C15U G21C A24U U32A C46G the self-cleavage was 0.1.
G2C C15A C23U C31U C42A gave a self-cleavage of 0.29.
Variant C3G A26U G40C G44U has a self-cleavage of 0.34.
With G29A G30U G33A G35C C45A C46A the self-cleavage was 0.03.
With A16U G19U G33C the self-cleavage was 0.02.
C10A A11G A41C G44U showed a self-cleavage of 0.03.
In the case of G2A G17C G40U, the self-cleavage is reported as 0.16.
With G17U G27C G35U C37G the self-cleavage was 0.1.
Work on G21C G36C A41G yielded a self-cleavage of 0.06.
In the case of G22U C23A A41G U43C, the self-cleavage is reported as 0.06.
With C23A G30C C31U the self-cleavage was 0.99.
Variant G17C C23U A26U G33U has a self-cleavage of 0.03.
With G5C A25G G36A A39G G40U the self-cleavage was 0.04.
Variant G2U A11C G29U U32C has a self-cleavage of 0.03.
C3A G5U C31A showed a self-cleavage of 0.11.
For G2C G7U G35A G40A, the self-cleavage was 0.16.
With C13A G22U G44U the self-cleavage was 0.17.
Variant A6G G29A A39U has a self-cleavage of 0.18.
With C10G A12U G36A the self-cleavage was 0.02.
For G5U C15U G22C C37U, the self-cleavage was 0.
With G1A C8A G17C U38G the self-cleavage was 0.05.
For C23U U38A G44C C45U, the self-cleavage was 0.06.
Work on C10A C13U A24G G36U A41C yielded a self-cleavage of 0.02.
With G2A C13G G17C G19U G44U the self-cleavage was 0.05.
Variant C10U A11G C13A G22U A26G G29U C42A C45G has a self-cleavage of 0.
G2C G5A G44C showed a self-cleavage of 0.09.
For C3A G5U C37G, the self-cleavage was 0.12.
C15U A16C C18U C42G gave a self-cleavage of 0.05.
In the case of A24U G29U G36C, the self-cleavage is reported as 0.37.
Variant A24C A26U U34C has a self-cleavage of 0.09.
Variant A25U G29U G40U has a self-cleavage of 0.87.
With C3U G7C G33U the self-cleavage was 0.07.
C10U A12U A16C showed a self-cleavage of 0.02.
C13G U34A G36C showed a self-cleavage of 0.05.
G5U C37U C42A C45G showed a self-cleavage of 0.01.
For G27U C31A C42G, the self-cleavage was 0.08.
A6G A12U U28A U32A gave a self-cleavage of 0.04.
G17A C23U U34A gave a self-cleavage of 0.01.
For A6U A24G C31U C42G, the self-cleavage was 0.01.
G5C G29U C45A C46U showed a self-cleavage of 0.07.
